In the supplement of paper PMC11417369:
The list shows a part of the results.

Each sequence was assayed on PfAP2-HC AP2 domain (GST-tagged) (assay: gcPBM binding intensity (ln(normalized median fluorescence intensity)); higher = stronger DNA binding).
Summary of the method: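 The binding buffer was 1× PBS containing 1% milk, 0.2 mg/ml BSA, 0.5% salmon testes DNA and 0.03% Triton X-100. In it, GST-tagged P. falciparum DNA-binding domains expressed in E. coli were applied for 1 h to an Agilent 4 × 180k array of primer-extended double-stranded 36-bp intergenic genomic probes plus negative controls. Binding intensity, read with Alexa488 anti-GST antibody and a 488 nm scan, is the highest Masliner-normalised natural-log median intensity across replicate spots of either probe orientation.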

Row | Sequence | gcPBM binding intensity (ln)
1 | TTTTTTTTTCGCTTTTGTACACATTTTATAGAACAG [XGTACX_site2416] | 9.64
2 | TATTATATATATGGAAGTACAGGTATATCGTTTTTC [XGTACX_site3771] | 9.66
3 | TTTTCCCTTAACCTCTGTACATATAATTTTCTTTCC [XGTACX_site4180] | 9.7
4 | TAGAATATGTTTAGTTGTACAAAACAAAATGGAATT [XGTACX_site5293] | 9.9
5 | CACATAAAAAAATAAACACACATATGTATATATATA [CACACA_site3177] | 10.2
6 | ATTTATTTTTTGTGTTCACACATTAGTATCATCTAT [CACACA_site5274] | 9.86
7 | TGCTTTTCTTTTTGCACACTTATGCATATATATATA [CACACA_site2583] | 9.93
8 | AAATAAGAAAAAGCGCGTACACATAACATTTTTATA [XGTACX_site8807] | 9.97
9 | TTTATTCAAGGAATAGTGCATAATAATAAGTATTAT | 9.52
10 | TGTATTCTCTTAGTAGTGCATTTGAAGATTATATAA | 9.43
11 | ATTTTTCTAAAATACTGTACAAAGGTGCATAAAAAG [XGTACX_site4425] | 9.54
12 | TCTAATGATATATACACACACATATAGATTTATATA [CACACA_site7044] | 10.2
13 | ATATTTATGGAATATACACACATGTATAATTATATA [CACACA_site2033] | 9.82
14 | TTTTCTGTTTTCATTACACACCTTACAAGAACAATA [CACACA_site2158] | 9.6
15 | GAAAACATTAAAAGTTAGATCATAAGAAAAGAATAT [GTGCAC_negctrl_site726] | 9.76
16 | ACATTATATAAAATATGTACATATAAAAAATTCTAT [XGTACX_site1617] | 9.77
17 | GTTCATCACATATACACATGCATATTCTAATATGTA [TGCATGCA_site809] | 9.87
18 | CATATATGTGATAACACGCACACAAATGTATAGAAT [CACACA_site2594] | 10.4
19 | TTATCATTTGGACACGCACACACACCGAAAAAGAAA [CACACA_site8008] | 10.8
20 | TTTTTTGCTAAAAAGAGTACTAATAAAAAATTTATT [XGTACX_site5235] | 9.21
21 | TTTTTGTAATTATATTAATATATATATATATATATA [CACACA_negctrl_site198] | 9.54
22 | AATAATTTAAGGAATACACACAAGAAAAAAATAAGA [CACACA_site60] | 9.96
23 | ACAAGAGAAGTAATTGCACACGTTGTTTCTTTTTCT [CACACA_site35] | 10.1

Row | Sequence | gcPBM binding intensity (ln)
24 | CCACATATACAAAACACACACACAACGTTTTAATAA [CACACA_site1978] | 10.7
25 | ATAATAATATAAAATACACACCTATTATTTTTACAA [CACACA_site6069] | 9.92
26 | TCACTATAGTAATTTACACACATTTGAAGAAAATGT [CACACA_site7626] | 9.85
27 | TATTTATTTATTTATGCATGCATGAATAATTTTTAC [TGCATGCA_site31] | 9.62
28 | ATTATTTAGAAATGAGCACACAAAAAGAAGAATTTT [CACACA_site7913] | 9.75
29 | TTTTAAATTTTTTAAAGTACACGTCGAAAAGGTATA [XGTACX_site76] | 9.42
30 | AAGAATTATATATTCACACAAAAAAAAAGTAAAAGA [CACACA_site5335] | 9.75
31 | TATAATATATATATATGTACATATTATTTACATATA [XGTACX_site7312] | 9.64
32 | TTTTAACATAGAAGTACACACATATAATCAATCATA [CACACA_site5313] | 9.87
33 | AAAAAAAAAAAAAAGAGTACATTTATTTATATATCT [XGTACX_site2381] | 9.47
34 | AATATATTAAATCTTACACACTAAAAAATATGTAAC [CACACA_site4325] | 9.64
35 | TGTTTAACACATGTTTCAAACAAAAAAAAAAAGACA [CACACA_negctrl_site1356] | 9.59
36 | TTTTATGAAAAATGGCTTATCTGTAAAGAAGTGGAG [CACACA_negctrl_site1586] | 9.43
37 | ATAAAGAAAATATGGAGTACATTTATATCCAATATA [XGTACX_site3085] | 9.62
38 | ATATTTGTAATTATTAAACACACACTAATTATATAT [CACACA_site8803] | 9.9
39 | AAATATATACTACCGATGCACTAAATATAAACACAT [GTGCAC_site9777] | 9.97
40 | TTAATTTTTGAAGGTACACACTAATATATTAAATAT [CACACA_site4791] | 9.57
41 | CTTTTAATTATAAAATGTACTTAAAAATAATAATAC [XGTACX_site635] | 9.28
42 | AAAACAGACAAACACACACACACATATATATATATA [CACACA_site3393] | 10.6
43 | TTATCCCCCTATCATTGTACATTAATACAAACTAAA [XGTACX_site5630] | 9.6
44 | AAAATGAAACAAATATGTACACATATAAATATTTCC [XGTACX_site54] | 9.78
45 | TATGTAGTTTTAAAGTGTACTTATATATATTAATTG [XGTACX_site378] | 9.52
